Measurements reported in publication PMC10668032.
The list shows a part of the results. At the low end of the ranking, values are background and their order means little.

Molecular target: SIX1 homeodomain (reference allele) (UniProt Q15475)
Assay: universal protein binding microarray
Conditions: Universal all-10-mer PBM (8x60K, AMADID 030236), 300 nM GST-tagged protein, Alexa Fluor 488 anti-GST; buffer, salt, pH and temperature not stated; high values mean tight binding; most listed sequences are background and not binding sites; double strand, one strand shown

Sequence	binding signal [E-score]
GCTGGCAA	-0.209
CAACAGGC	-0.297
GTGACTAA	-0.0841
CTGTTAGA	-0.156
ACCAGCCC	-0.102
CTGCCAAA	-0.197
GCCACTGA	0.0969
GATGCGGA	0.199
ACAAATAC	0.091
GGATCCAC	0.317
ATTTCTGC	-0.175
AATTCACA	-0.158
ATGTTGTA	-0.00761
ACACCCGG	0.344
GCTCATTA	0.0741
AGAATTCG	-0.193
CCTTCCCC	0.0255
AACGGGCC	-0.244
TCATGGGA	0.153
GGTACCGA	-0.235
ATTGAGGA	-0.0505
CAAACAGA	-0.0329
TTTGAAAA	-0.236
ATCGCCCG	0.198
CCGCCCGC	0.0472

Sequence	binding signal [E-score]
ACCTCAGA	-0.0606
CGCGACTC	-0.0471
CCAATGTC	-0.177
CCAGGGCC	-0.141
ACATGGCG	-0.0137
ACGTTGTG	-0.151
GTGACACA	0.0363
ACTGACGC	-0.281
ACATGCTG	-0.0537
CGCATGCG	-0.0556
CTGACAAA	-0.19
CCAAAAAG	-0.254
CGGGACCC	-0.141
TCGTTAAA	-0.217
ATGCGTCG	0.0188
CATTATCC	0.326
CGCCAACA	-0.0312
CTGACACC	0.468
AGGCTGTC	-0.282
AGCGAACC	-0.18
CGCTTCAG	-0.0378
CGCATGTC	-0.154
AGAGTACC	-0.135
ATGCGACG	0.103
GACATAGC	0.0494

Sequence	binding signal [E-score]
CTGCGAAG	-0.222
GCAAGCAC	-0.33
GCTTAACC	-0.134
AGGACGCA	-0.259
CAATAAGC	-0.0943
CGGACAGA	0.0236
AAGTCTCG	-0.0944
CACAATCG	0.00178
CACGAAGG	0.0539
CCTATCGC	0.29
ATTGTAGC	0.0709
ACTTCTAC	-0.023
CAAATGGC	-0.155
CACTCACA	0.0495
CCTGGTCG	-0.0285
CATTTTAA	-0.135
CCACTCCC	0.094
ATATAGTG	0.291
AGACTAGC	-0.245
AGGGTCGG	0.0814
ACCTAGTG	0.0223
AAACTTAG	-0.244
AGTTTTCG	-0.191
CGGTATCA	0.485
CCGCCGCC	-0.0743

Sequence	binding signal [E-score]
AGTGGTGC	-0.213
GATTCGAC	-0.131
GTTCCCTA	-0.111
CATGTGGC	-0.115
GGAGGGCC	-0.175
CAATTGCA	-0.217
AACGGCGC	-0.233
TAGCGGCA	0.1
AAGATGAT	0.156
ACAATGTG	-0.179
ACGCACGT	-0.0658
ATCAGCAC	0.105
ACACATTC	-0.177
GCGGTAAA	-0.129
AACACTGC	-0.25
CTGTCAGC	-0.0915
ATGGGGGC	-0.288
AATAGAAC	-0.105
CGCTCAGC	-0.0797
ACTATGCC	0.00714
GTTTAAAA	-0.156
ACGGTAGC	-0.149
AAGGCCTT	-0.419
GGTTAACA	0.0046
AGCGTAAA	-0.165

Sequence	binding signal [E-score]
ACTGAAAA	-0.263
CCTGAGTA	0.114
CGCTGTCC	-0.193
ACGAAGCT	-0.139
ACTTGTTG	-0.224
CGGTTCGC	-0.0982
CATTAGCA	-0.0258
CCAATGCA	0.00175
GAGTCGCC	-0.151
CTTGTTGC	-0.216
CGGGGGTC	0.0628
CCGGCGAC	-0.00394
ATAGAGAT	0.212
GATGCTCA	-0.161
CCGTTGGA	-0.0757
CGACTCGC	0.0358
CCCAGGGG	0.0478
ATGTGCAC	-0.258
GTGCCTAA	-0.332
ATTATCTA	0.0829
GAAGTTGA	-0.164
AGTCAGCA	-0.214
ACCTCAAC	-0.0189
AAACTGCG	-0.24
ATGAGTAA	0.1

Sequence	binding signal [E-score]
ATTTTTAG	-0.161
AGAGCGAA	-0.173
CCCATATC	0.469
CCGACGTC	-0.0626
GAACATGC	-0.208
CGCTCTTA	-0.051
AAGACGAG	0.0303
CCCCCTGC	-0.0849
TGCATGAA	-0.199
ATGCGCAA	-0.184
CGAGAGGA	0.0132
GTATTCTA	0.191
TCCCGCAA	0.00146
CAGCTCAA	-0.0998
TAACCCCA	0.123
CGTTGCTA	0.0843
GAGACGTA	0.137
CCGAAAGG	-0.156
GTGTCGTA	0.231
TATGGTAA	0.166
ATCGAACC	0.141
CTAATTGC	0.0114
GACTGACA	-0.0589
CCTTGGCC	-0.201
ACAATTAG	-0.187

Sequence	binding signal [E-score]
TAAGGGTA	0.244
CGCGGCCC	-0.121
AACGCAAG	-0.168
ATTCACAG	-0.206
GTCCCGCA	-0.161
AGACTGAA	-0.202
AGACGCTG	0.00255
CTAAGAGC	-0.0759
CAATGGCA	-0.221
ATATTAAA	0.267
ATGACAGA	0.00632
AGTAACCC	0.0937
CCTTGTCA	-0.174
CGCGTAGC	-0.158
AGTTAAAT	-0.198
CCCCCACC	-0.179
ATTTGCGG	-0.246
AAATCTAC	0.0471
GCATGGAC	-0.101
TGTAAACA	-0.0226
CGAAACGA	-0.0922
ATAATGAG	0.0287
